Results: PubChem BioAssay AID1240 (Sanford-Burnham Center for Chemical Genomics, 2008)
Among all 50,000 compounds or so, about 800 (1.6%) showed an effect of 50% or more. The list shows a part of the results.

biological target: Bcl-2-like protein 10 (Homo sapiens) (UniProt Q9HD36); experiment: Phenotype converters, Bcl-B/TR3 peptide binding displacement, primary biochemical FP (AID 1240); details: GST-Bcl-B / FITC-TR3 peptide fluorescence polarization; stronger effect = higher value; compound at 3.75 mg/L;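 further: 0% = Bcl-B with tracer peptide and DMSO and 100% = tracer peptide lacking Bcl-B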
Sequence of UniProt Q9HD36 (Q9HD36 whole entry, looked up): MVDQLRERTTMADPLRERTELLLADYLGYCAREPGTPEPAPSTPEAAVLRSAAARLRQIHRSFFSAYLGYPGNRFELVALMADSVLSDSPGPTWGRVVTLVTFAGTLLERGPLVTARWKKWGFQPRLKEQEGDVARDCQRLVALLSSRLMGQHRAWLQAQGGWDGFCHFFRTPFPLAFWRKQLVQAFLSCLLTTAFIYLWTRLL

Point of comparison: `CCOc1ccc(NC(=O)CN(c2ccccc2OC)S(=O)(=O)c2ccccc2)cc1`, displacement -2.9%. Against it:
- Cc1ccc[n+](CC(=O)c2ccc(N3C(=O)c4ccccc4C3=O)cc2)c1 — higher, -0.2%
- Cc1ccc(CN2CCN(/N=C/c3ccc(C)s3)CC2)cc1 — higher, 14.9%
- Cc1ccc(CNC(=O)C(=O)NCc2ccncc2)cc1 — higher, 7.8%
- Cc1ccsc1C1CC(=O)NC(SCc2ccccc2)=C1C#N (centres undefined) — lower, -5.9%
- CC(C)(C)C(=O)COc1cc2oc(=O)cc(-c3ccccc3)c2cc1Cl — higher, -1.9%
- CS(=O)(=O)N(Cc1ccc(Cl)cc1)c1ccc(C(=O)O)cc1 — higher, 10.9%
- COc1ccc(N2C(=O)c3ccccc3NC2c2ccc(OC)c(CN3C(=O)c4ccccc4C3=O)c2)cc1 (centres undefined) — lower, -4.2%
- COc1ccc(NC(=O)C(=O)NCc2ccc(Cl)cc2)cc1Cl — lower, -3.9%
- COc1ccc(S(=O)(=O)N2CCN(C3CCC(c4ccccc4)CC3)CC2)cc1 (centres undefined) — higher, 16.9%
- O=S(=O)(Nc1ccc(Nc2ccccc2)cc1)c1ccccc1 — higher, -0.6%
- CC(C)CN(CC(C)C)C(=O)c1ccccc1Br — higher, -2.2%
- COc1cc(NC(=O)c2cccs2)c(OC)cc1NC(=O)c1cccs1 — lower, -6.2%
- COc1ccc(C(C)(C)C)cc1NC(=O)C1CC(=O)N(c2ccccc2)C1 (centres undefined) — higher, 8.8%
- COc1ccc(CCC(=O)NCCC(c2ccccc2)c2ccccc2)cc1 — higher, 1.4%
- O=C(c1ccc(F)cc1)N1CCN(c2ccc(Cl)cc2)CC1 — lower, -5.6%
- N#Cc1c(/N=C/c2cc(Br)ccc2O)sc2c1CCN(Cc1ccccc1)C2 — higher, 0.8%
- CCCC(=O)Nc1ccc2nn(-c3ccc(OCC)cc3)nc2c1 — higher, -0.4%
- CCOc1cc(/C=N/NC(=O)c2cccnc2)ccc1OC(=O)c1ccc([N+](=O)[O-])cc1 — higher, 7.1%
- CCn1ccnc1C(O)c1ccccc1OC (centres undefined) — higher, 12%
- COc1ccc(/C=C2\SC(=Nc3cccc(Cl)c3Cl)NC2=O)c(OC)c1 — higher, -0.2%
- C=CCOc1c(I)cc(C=C2C(=O)NC(=S)NC2=O)cc1OCC — higher, 9.6%
- C/C(=N\NC(=O)c1cc(-c2ccccc2)n[nH]1)c1ccc([N+](=O)[O-])cc1 — lower, -15.5%
- CCOc1cc(/C=N/n2cnnc2)cc(Br)c1OCCOc1ccccc1OC — lower, -4.5%
- O=[N+]([O-])c1ccc(C[n+]2cc(-c3ccc(Cl)c(Cl)c3)n3c2CCC3)cc1 — higher, 9.6%
- O=C1/C(=C/c2cc(Cl)cc(Cl)c2O)SC(=S)N1Cc1ccccc1 — higher, 6%
- Cc1ccc(N2C(=O)C(=Cc3ccc(O)cc3)C(=O)N(c3ccc(C)cc3)C2=S)cc1 — lower, -36.4%
- COc1ccc(C(=O)N/C(=C\c2ccccc2)C(=O)NCCCN(C)C)cc1 — higher, 9.9%
- O=C(CNC(=O)c1ccc(F)cc1)N=Nc1c(O)n(Cc2ccc3c(c2)OCO3)c2ccccc12 — lower, -17.6%
- CC(=O)CC(=O)Nc1ccc(Cl)cc1Cl — higher, 1.4%
- CCOC(=O)C1=CN(c2ccc(OCC)cc2)C=C(C(=O)OCC)C1c1ccccc1F — lower, -12.6%
- CC(C)(C)c1ccc(C=NN2CCN(Cc3ccccc3Cl)CC2)cc1 — lower, -8.8%
- O=C1NC(=O)N(c2ccccc2)C(=O)/C1=C\c1ccc(-c2ccccc2[N+](=O)[O-])o1 — higher, 2.7%
- CN1CCN(NC(=O)c2ccc(C(C)(C)C)cc2)CC1 — lower, -3.4%
- O=C(NCc1ccco1)C(=O)Nc1ccc([N+](=O)[O-])cc1 — higher, 9.2%
- CCC(Oc1ccccc1)C(=O)Nc1sc(C)c(C)c1C#N (centres undefined) — higher, 7.8%
- C=CCOc1ccc(S(=O)(=O)c2ccc(OCC=C)cc2)cc1 — higher, 12.4%
- N/C(=N\OC(=O)c1ccc(I)cc1)c1ccc([N+](=O)[O-])cc1 — higher, -1.6%
- Cc1ccc(S(=O)(=O)N(C)c2cccc3cccnc23)cc1 — higher, 16.1%
- CCOC(=O)c1c(-c2ccccc2)oc2cc(Br)c(O)cc12 — higher, 10.8%
- O=C(CSc1nc2sc3c(c2c(=O)n1-c1ccc(Cl)cc1)CCCC3)c1ccccc1 — lower, -9.5%
- C=CCn1c(SCC(=O)O)nc2sc3c(c2c1=O)CCC3 — lower, -4.5%
- CCOC(=O)c1c(NC(=O)c2ccc(Cl)c([N+](=O)[O-])c2)sc2c1CCC2 — higher, 2%
- COC(=O)CCN1C(=O)/C(=C\c2ccc(C)cc2)SC1=S — higher, 0.6%
- O=C(Nc1nnc(CCSCCc2nnc(NC(=O)c3ccco3)s2)s1)c1ccco1 — lower, -7.5%
- COc1ccc(C(=O)N2CC(C)OC(C)C2)cc1[N+](=O)[O-] (centres undefined) — lower, -6.5%
- CC1=C(C(=O)Nc2ccccc2)C(c2ccc(Br)cc2)NC(=O)N1 (centres undefined) — higher, 14.6%
- CCSc1nnc(NC(=O)c2cccc([N+](=O)[O-])c2)s1 — lower, -4.2%
- COc1ccc(N2C(=O)C(Cl)=C(Nc3cccc(OC)c3)C2=O)cc1 — higher, 15.9%
- c1ccc(-c2cn3nc(-c4ccccc4)sc3n2)cc1 — higher, 0.8%
- COc1ccccc1C(=O)N1CCN(Cc2cc(OC)c(O)c(OC)c2)CC1 — higher, -2.7%
- Cc1cc(C)cc(CSCC(=O)Nc2c(C)n(C)n(-c3ccccc3)c2=O)c1 — higher, 1.8%
- CN1CN=C2SC3(COC(c4ccncc4)OC3)C(=O)N2C1 (centres undefined) — higher, 12.4%
- COc1cc(NC(=O)c2cccc(Cl)c2)c(OC)cc1Cl — lower, -5.1%
- CC(=O)n1cc(/C=C2\Sc3ccccc3C2=O)c(-c2ccccc2)n1 — higher, 145%
- CC(C)CC(=O)N1CCC(Cc2ccccc2)CC1 — higher, -1.9%
- CC(=O)c1ccc(NC(=O)c2ccc3c(c2)OCCO3)cc1 — higher, 10.6%
- Cc1cc([N+](=O)[O-])ccc1N[C@@H]1C[C@H](O)[C@@H](CO)O1 — higher, 9.8%
- COc1ccc(-c2cc(N3CCOCC3)c3cc(OC)c(OC)cc3c2)cc1OC — higher, 3.9%
- O=C(Nc1nc(-c2ccc3ccccc3c2)cs1)C1CC1 — lower, -6.7%
- CC(=O)N1c2ccccc2N(Cc2ccc([N+](=O)[O-])cc2)C(=O)C1(C)C — higher, 11%
- C=CCN1C(=O)/C(=C\c2ccc(N(C)C)c(Br)c2)C(=O)NC1=S — higher, 13.5%
- Cc1ccc(C(=O)N/C(=C/c2ccc(-c3ccc(Cl)cc3Cl)o2)C(=O)NCCCO)cc1 — higher, 8.5%
- CCc1cccc(C)c1NC(=O)/C=C/c1cccc([N+](=O)[O-])c1 — higher, -0.6%
- CCOC(=O)CNC(=O)c1cccc(C)c1 — higher, 0%
- Cc1ccc(-c2nn(-c3ccccc3)cc2/C=C/C(=O)c2cccs2)cc1 — higher, 13.1%
- CS(=O)(=O)N(CC(=O)NCc1ccncc1)c1ccc(Oc2ccccc2)cc1 — higher, 10.2%
- O=C(N/N=C/c1ccc(F)cc1)C(=O)Nc1cccc(Cl)c1 — higher, 5.5%
- CCC1(C)CC(CCN)(c2ccc(C)cc2)CCO1 (centres undefined) — higher, 2.3%
- COc1ccc(N=C2SC(C(=O)N3CCN(c4ccccc4)CC3)CC(=O)N2C)cc1 (centres undefined) — lower, -4.9%
- COc1ccc(CCNC(=O)c2cc(Cl)ccc2[N+](=O)[O-])cc1OC — lower, -3%
- COc1cc(/C=N/NC(=O)c2cccc(I)c2)ccc1OC(C)=O — higher, 4.2%
- Cc1ccc(N(CC(=O)Nc2cc(Cl)cc(Cl)c2)S(C)(=O)=O)cc1Cl — lower, -3.1%
- O=c1c2cnn(-c3ccccc3)c2nc(-c2ccccc2F)n1-c1cccc(Cl)c1 — higher, 3.5%
- CNc1ccc2c(O)cc(S(=O)(=O)O)cc2c1 — higher, 26.6%
- COC(=O)C1=C(C)N(CC2CCCO2)C(=O)/C1=C\c1ccc([N+](=O)[O-])cc1 (centres undefined) — higher, 12.6%
- O=C(O)CCCCCN1C(=O)/C(=C/c2c(F)cccc2Cl)SC1=S — higher, 2.3%
- COc1cc(C(=O)Nc2cccc(F)c2)cc(OC)c1OC — higher, 5.4%
- COC(=O)c1c(NC(=O)/C=C\C(=O)O)sc(C)c1C — lower, -8.8%
- C=CCn1c2ccccc2c2nnc(SCN3C(=O)c4ccccc4C3=O)nc21 — higher, 19%
- CCOC(=O)c1c(NC(=O)c2ccc(S(=O)(=O)N3CCCCCC3)cc2)sc(C(C)=O)c1C — higher, -1.3%
- O=C(/C=C/c1ccc(Cl)cc1Cl)NCc1ccccn1 — lower, -3.7%
- COc1ccc(-c2cc(-c3ccc(C)cc3)nc(N/N=C/c3cccnc3)n2)cc1OC — higher, 1%
- Cc1occc1C(=O)NNC(=O)c1ccc(Cl)cc1 — higher, 8.8%
- Cc1cc(NC(=O)COC(=O)C(CC(C)C)NC(=O)c2ccccc2)no1 (centres undefined) — higher, 9.8%
- Cc1ccc(/C=C2\N=C(c3ccc(Cl)cc3)OC2=O)cc1 — higher, 0%
- CCOc1cc(C=O)c(Br)cc1O — higher, -1.7%
- O=C1NN(c2ccccc2)C(=O)/C1=C/c1ccco1 — higher, 21.9%
- O=C(/C=C/c1ccccc1)Nc1nnc(-c2ccncc2)s1 — lower, -6%
- COc1cc(OC)c(/C=C2\SC(=Nc3ccc(C)c(Cl)c3)NC2=O)cc1Br — lower, -5.7%
- O=S(=O)(Nc1ccccc1F)c1ccc(F)cc1 — lower, -5.3%
- O=C(c1ccccc1)N(Cc1ccccc1)CC(O)(c1ccccc1)c1ccccc1 — higher, 3.3%
- COc1ccc(NC(=O)CN(c2ccccc2Cl)S(C)(=O)=O)cc1OC — higher, 3.6%
- CCOC(=O)C1=C(O)/C(=C\c2ccc(OCC)cc2)N=C1C — higher, 18.1%
- O=Cc1ccc(OC(=O)c2cccnc2)cc1 — higher, -0.7%
- O=C(c1cccc([N+](=O)[O-])c1)c1ccc2c(c1)C(=O)NC2=O — lower, -13.3%
- CCC(=O)Nc1ccc(-c2nc3ccccc3o2)cc1 — higher, 5.6%
- Cc1nnc(C)n1/N=C\c1ccccc1F — lower, -8.8%
- Cc1cc(C)cc(N2C(=O)/C(=C/c3ccc(O)c(Cl)c3)C(=O)NC2=S)c1 — higher, 6.5%
- O=C(/C=C/c1cccs1)Nc1nc(-c2cccs2)cs1 — higher, -2.6%
- COc1ccccc1C1NC(c2ccccc2OC)C2C(=O)C1C(c1ccccc1OC)NC2c1ccccc1OC (centres undefined) — lower, -12.9%
- O=C(CSc1ccncc1)OCc1ccc([N+](=O)[O-])cc1 — higher, 3.1%
- O=C(O)/C=C\C(=O)Nc1cccc(O)c1 — higher, 15.1%
- CC(C)(C#N)OC(=O)Nc1ccccc1 — higher, 4.5%
- O=C1c2ccccc2C(=O)c2c1cccc2N1CCN(CCO)CC1 — higher, 0.1%
- O=C(NCC1(c2ccccc2)CCCC1)c1cc2ccccc2o1 — lower, -5.7%
- CC(Oc1ccc(/C=C2/SC(=S)N(Cc3ccccc3)C2=O)cc1)c1ccccc1 (centres undefined) — higher, 123%
- COc1ccc(C(=O)NCc2ccc(C)cc2)cc1OC — higher, 4.6%
- O=C(CN1C(=O)c2ccccc2C1=O)N1CCCCCC1 — lower, -5.6%
